Laboratory results reported in ChEMBL document CHEMBL4888484, “Replenishing the malaria drug discovery pipeline: Screening and hit evaluation of the MMV Hit Generation Library 1 (HGL1) against asexual blood stage Plasmodium falciparum ,using a nano luciferase reporter read-out” (2022).
In all, about 150,000 compounds went through this assay and about 540 (0.36%) showed an effect of 50% or more. Some of the results follow.

test system: Plasmodium falciparum; test: Primary screen in NF54 nanoGlo assay, in single point, at 2uM, 72h; a lower Z score goes with more inhibition; type: functional, Erythrocyte; conditions: timepoint 72 hour

Structure (SMILES)	% Inhibition [%]	Z score
CCOC(=O)C1=C(C(=O)OCC)SC(=C2C(=S)C(C)(C)N(C(=O)CC)c3cc(OCC)ccc32)S1	-4	0.46
C(#Cc1cccc(-c2nc(-c3ccccc3)c(-c3ccccc3)[nH]2)c1)c1ccccc1	0	-0.04
COc1ccc(N2C[C@@H](C(=O)N3CC(Oc4nccs4)C3)CC2=O)cc1	-16	2.7
COCCN1C(=O)CC[C@@H](C(=O)NCCC(C)C)[C@H]1c1ccc(C)cc1	-2	0.28
CCC(NC(=O)C1Cc2ccccc21)(C(=O)O)c1ccccc1 (stereo not given)	-9	1.71
CN1CCC(O)(c2nc(-c3cccc4c3ccn4C)nn2CCO)CC1	-5	0.68
CC(C)(C)c1coc(CN2CCC(c3c[nH]cn3)CC2)n1	-12	2.27
COc1cccc(CN2CCc3c(cc(C(=O)N4CCCN(C)CC4)n3C)C2)c1	9	-1.06
C=C1C(C(=O)Nc2ccccc2F)C1C(=O)Nc1ccccc1F (stereo not given)	0	-0.05
COc1ccccc1CC(=O)Nc1cnn(-c2ncc(N3CCCC3)cn2)c1	-10	1.59
C[C@](O)(CNS(=O)(=O)CC1CCCC1)C1CC1	-2	0.2
Cc1cc(C)n(CCN(C)Cc2nnc(C)s2)n1	-17	1.6
CCN1C(=O)Cc2cc(NC(=O)Cc3ccc(OC)cc3)ccc21	-12	1.4
CCc1nc(CN2CCN(S(=O)(=O)c3ccccc3)CC2)no1	-15	2.66
Cc1noc(C)c1C(=O)NC[C@H]1CCCN(c2nnnn2-c2ccccc2)C1	-10	1.02
Cc1c(F)cccc1NC(=O)N1CC(Cc2nncn2C(C)C)C1	-7	1.23
CC1CN(CC(O)COC2CCCCC2)CC(C)O1 (stereo not given)	-14	1.3
COC(=O)[C@@H](C)CN(C)c1nc(C2CC2)no1	5	-0.76
CC(=O)NC1CCN(C(=O)N(c2ccccc2)c2ccccc2)CC1	-2	0.17
Cc1oc(-c2ccccc2)nc1CN1C(=O)N[C@](C)(c2cc(F)ccc2F)C1=O	1	-0.19
COCCn1c(CO)nnc1[C@H]1C[C@@H](NC(=O)c2ccn(C)c2C)C1	-8	1.29
CC1=C(C(=O)N2C3CCC2CC(=O)NC3)CCC1 (stereo not given)	-2	0.31
CCS(=O)(=O)N1CCC(N2C[C@H](OCCOC)C23CCCCC3)CC1	-3	0.57
COC(=O)N1CC[C@H](Nc2ncccc2C#N)C1	-5	0.76
Cc1cc(C)c(CNC(=O)c2c[nH]nc2-c2ccccc2)c(=O)[nH]1	-8	0.7
Cc1noc([C@H](C)NC(=O)c2cccnc2O)n1	29	-3.26
COc1nccnc1N[C@@H](CN1CCCC1)C(C)(C)C	-5	0.88
COC(=O)c1ccc(CN(CCNC(=O)C(C)C)C(=O)C(C)C)cc1	-2	0.26

Structure (SMILES)	% Inhibition [%]	Z score
Cc1ccc(S(=O)(=O)N2CC[C@H](OCC3CC3)C2)cc1Cl	-9	1.38
O=C(Cc1nnc(-c2ccncc2)o1)NCc1ccccc1C(F)(F)F	-13	1.32
O=C(CC[C@H]1CCCO1)Nc1cnc2[nH]ncc2c1	-10	1.84
N#Cc1sccc1-c1ccccc1CN1CCOCC1	-4	0.72
O=S(=O)(CCCc1cn[nH]c1)Cc1cccc2ccccc12	-4	0.39
c1cnn(-c2cncc(NCCCN3CCOCC3)n2)c1	-4	0.44
COc1cccc(-c2nc3ccc(-c4ccc(Cl)cc4C)cn3c2CCC(=O)NCc2ccccc2)c1	7	-0.86
Cc1ccc([C@@H]2Cn3nnc(C(=O)N4CCC(C(=O)NCCN5CCCC5)CC4)c3CO2)cc1	-20	1.82
CCc1ncc(S(=O)(=O)N2CCCc3ncccc32)s1	18	-2.26
Cc1cnc(CCN2C(=O)[C@H](Cc3ccccc3)N(C)C2=O)s1	-7	0.73
COc1cc(OC)cc(C2CCN(C(C(N)=O)c3ccccc3)C2)c1 (stereo not given)	4	-0.51
CC(C)(C)c1nnnn1CN1CCN(c2ncccn2)CC1	-6	0.83
O=C(Cc1ccc(-c2ccccc2)cc1)NC1CCNCC1F (stereo not given)	0	0.01
Cn1nc(C2CC2)cc1N1CCN(C(=O)NCc2cccs2)CC1	13	-1.75
Cc1cc(NC(=O)Nc2cnn(C)c2)cnc1N1CCCC[C@@H]1C	2	-0.2
COC(C)[C@H](C)NC(=O)c1cnn2c(-c3cccnc3)ccnc12 (stereo not given in full)	-9	1.4
Cn1cnn(CCOc2ccc(Cl)cc2)c1=O	-1	0.25
COc1cccc(C(=O)N2CCC3(CC2)N[C@@H](CC(C)C)C(=O)N3Cc2cccc(C(F)(F)F)c2)c1	-10	1.84
O[C@H]1CCN(Cc2csc3c2CCCC3)C1	-5	0.98
Cn1nnc2c(N3CC4CCC(NC(=O)C(C)(F)F)CC4C3)ncnc21 (stereo not given)	3	-0.64
Cc1nsc(C(=O)NCCCN2CCOCC2)n1	-11	1.65
Cc1nn(C)c2ncnc(N3CCCN(CC(C)C)CC3)c12	-10	1.81
CC(NCC1CCN(C2CC2)C1)c1ccccc1N(C)C (stereo not given)	5	-0.89
CC[C@H](NCc1ccc(Br)o1)c1noc(C)n1	-11	1.17
Cc1ccc2c(Nc3ccc(C)c(Cl)c3)c(C(=O)N3CCCCC3)cnc2n1	-3	0.46
COc1ccccc1C[C@H](C)N1CCC(CCC(=O)NC2CC2)CC1	-12	1.11
O=C1CCC2(CCN(c3cnc4ccccc4n3)CC2)CN1Cc1cccnc1	5	-0.69
